Here are results for 71 molecules from PubChem BioAssay AID1362 (SRMLSC, 2008).

A word on the inhibition: it is the drop in the measured response relative to a control, in per cent.

Molecules are shown by their SMILES. This is one part of the list. Shown are side measurements of this screen, not its main read-out; they come without a call. Most of these compounds were active or inconclusive in the main read-out, so they are no random draw.

This assay is described as follows: growth inhibition of WT strain, primary screen, mitochondrial fusion inhibitor project, WT and mutant strains, chemical genetic (AID 1362). Further: tested in S. cerevisiae. Particulars: mitochondrial fusion phenotypic screen, at 10 µM.
`Cc1nc2ccc(C(=O)NCc3ccc4c(c3)OCO4)cc2s1`: the inhibition is 55.1%.

With `O=[N+]([O-])c1cccnc1N1CCC(c2cc(-c3ccc(Cl)cc3Cl)n[nH]2)CC1`, the inhibition came out at 14.5%.

For `Cc1ccc(CCSc2ccc(C(C)C)cc2)cn1`, the inhibition amounted to 70.3%.

As to `CNC(=S)N/N=C/c1cccc(OCc2ccccc2F)c1`, the inhibition amounted to 9.92%.

With `COc1cc(CNC(C)(C)CO)cc(Br)c1OCc1ccc(Cl)cc1Cl`, the inhibition worked out at 89.1%.

For the molecule `S=C(NCCc1ccccc1)NCCc1ccccc1`, the inhibition was 51.9%.

As to `CCCCc1ccc(NC(=S)NCc2ccc(OC)cc2)cc1`, the inhibition is 50.5%.

`CCN(c1ccccc1)S(=O)(=O)c1cnc[nH]1`: the inhibition was 2.52%.

Regarding `O=C(NCc1ccco1)C1CCN(C(=O)c2cc3sccc3n2Cc2ccc(Cl)cc2)CC1`, the inhibition came out at 20.6%.

With `CCCOc1ccc(-c2csc(N)n2)cc1[N+](=O)[O-]`, the inhibition was 74.6%.

Regarding `CC1CN(C(=O)N(C)C)CCN1C(=O)N(C)C` (stereo unspecified), the inhibition was 7.32%.

For `COc1ccc(-c2nc3n(c(=O)c2C#N)CCCS3)cc1`, the inhibition is -10.4%.

As for `CN(C)c1nn(C(=O)Nc2cccc(C(F)(F)F)c2)cc1-c1ccccc1`, the inhibition came out at 29.2%.

For the molecule `O=C1c2ccccc2NC(c2ccc(Cl)cc2Cl)N1Cc1ccccc1` (stereo unspecified), the inhibition is 38.9%.

In the case of `CC1CCN(C(=S)c2cn(Cc3ccccc3F)c3ccccc23)CC1`, the inhibition is 65%.

In the case of `Cc1ccc(S(=O)(=O)Nc2ccccc2C(=O)Nc2nc(-c3ccc(F)cc3)cs2)cc1`, the inhibition is 64%.

Take `Cc1cccc(NC(=S)NCC(C)CSc2ccc(Cl)cc2)c1` (stereo unspecified): the inhibition amounted to 47.5%.

As for `O=S(=O)(NCCC(c1ccc(F)cc1)c1ccco1)c1ccccc1` (stereo unspecified), the inhibition came to 11.8%.

With `CC1=NOC(=O)/C1=C/c1ccc(-c2ccc(Cl)cc2)o1`, the inhibition was found to be 72.9%.

As to `CCCCN(CCCC)C(=S)NC(=O)c1ccccc1Cl`, the inhibition was determined as 47.3%.

Take `CCCCC(CC)C(=O)Oc1ccc(O)c(C(C)(C)C)c1` (stereo unspecified): the inhibition is 78.7%.

For `Cc1ccc(CNC(=O)C(Cc2ccccc2)NS(=O)(=O)c2ccc(Br)s2)cc1` (stereo unspecified), the inhibition was 43.6%.

With `Cc1ccc(Sc2ccc(NC(=O)CCl)cc2)c(C)c1`, the inhibition was 14.9%.

`CCOC(=O)C1=NN(c2ccccc2)C2(S1)SC(C(C)=O)=C(C)N2c1ccccc1` (stereo unspecified): the inhibition was determined as 1.57%.

Regarding `Cc1ccc(C(=O)NC(=S)/C=C2\N(C)c3ccccc3C2(C)C)cc1`, the inhibition was found to be 12.3%.

With `Fc1nc(F)c(F)c(NCCCNc2c(F)c(F)nc(F)c2F)c1F`, the inhibition is 39.4%.

Turning to `O=C(/C=C/c1ccc(Cl)cc1Cl)NCCSCc1ccccc1`, the inhibition came out at 34.6%.

With `Cc1ccccc1CSCC(=O)Nc1ccccc1-c1ccccc1`, the inhibition is 35.3%.

With `CCOc1cc(C(=O)N(C)Cc2cc3ccccc3[nH]c2=O)cc(OCC)c1OCC`, the inhibition was determined as 2.19%.

Take `CCN(C(=O)c1ccc2c(Cl)c3c(nc2c1)CCC3)c1ccc(C)c(C)c1`: the inhibition stood at 81.9%.

Regarding `CCCN(CC(=O)Nc1cccc(Br)c1)CC(=O)Nc1ccc(F)c(F)c1F`, the inhibition worked out at 34.7%.

With `CC(C1CC1)N(Cc1ccccc1)C(=S)Nc1cccc(C(F)(F)F)c1` (stereo unspecified), the inhibition came to 41.9%.

`CN1CC(=O)Nc2ccc(F)cc2C1=O`: the inhibition was 1.89%.

As to `S=c1[nH]c(-c2ccc(Cl)cc2)cs1`, the inhibition turned out to be 52.5%.

Regarding `CCOc1ccc(C(c2c(NC(=O)c3ccccc3)sc(C)c2C)N2CCN(C)CC2)cc1` (stereo unspecified), the inhibition amounted to 28.6%.

For `CCC(C)(C)c1ccc(OCCCC[n+]2cccc(C)c2)c(C(C)(C)CC)c1`, the inhibition was determined as 97%.

`c1ccc(-c2nnc(CSc3nnc(-c4ccncc4)n3Cc3ccco3)o2)cc1`: the inhibition was 0.62%.

As for `Cc1nc2c(-c3ccccc3)c(C)nn2c(N)c1-c1ccccc1`, the inhibition worked out at 65.4%.

On to `COc1ccccc1C1(CCNS(=O)(=O)c2ccc(C)cc2)CCOC(C(C)C)C1` (stereo unspecified), for which the inhibition was determined as 4.36%.

With `CN(C)c1cc[n+](CC(=O)c2ccc(-c3ccccc3)cc2)cc1`, the inhibition was determined as 70.7%.

Take `COc1ccc(CCNC(=S)Nc2cccc3ccccc23)cc1`: the inhibition turned out to be 35.3%.

Turning to `S=C(NCCc1ccccc1)Nc1ccc(Nc2ccccc2)cc1`, the inhibition turned out to be 58.2%.

Consider `CCCC[n+]1c(-c2ccc(Cl)cc2Cl)csc1Nc1ccccc1`, for which the inhibition is -1.63%.

For `Nc1c(C(=O)NC2CCCC2)sc2nc(-c3cccs3)ccc12`, the inhibition worked out at 2.09%.

Turning to `Cc1cc(/C=C\c2ccccc2)nc2ccccc12`, the inhibition was determined as 38.4%.

Take `Cc1nc2cc(C(=O)OCC(=O)NC34CC5CC(CC(C5)C3)C4)ccc2n1-c1ccccc1`: the inhibition is -2.64%.

With `CCN(CC)S(=O)(=O)c1cccc(NC(=O)c2ccc(Br)cc2)c1`, the inhibition was found to be 40.6%.

For `CCCCCCOC1(c2ccccc2)OC(=O)c2ccccc21` (stereo unspecified), the inhibition amounted to 1.87%.

As for `COc1ccc(-c2noc(N(C)CC(=O)Nc3cccc(C(F)(F)F)c3)n2)cc1`, the inhibition worked out at 34%.

For the molecule `CCOc1ccc(NC(=S)NC(C)CCc2ccccc2)cc1` (stereo unspecified), the inhibition was determined as 57.7%.

As to `Cc1ccc(C)c(NC(=S)Nc2cccc3cnccc23)c1`, the inhibition turned out to be 46.1%.

`O=C(NC12CC3CC(CC(C3)C1)C2)c1ccc(-c2cccc(Cl)c2)o1`: the inhibition is 28.8%.

Take `Cc1ccc(S(=O)(=O)N(Cc2ccccc2)Cc2ccco2)cc1`: the inhibition is 42.5%.

Regarding `COc1ccc(C(=O)/C(C#N)=N/Nc2ccc([N+](=O)[O-])cc2)cc1`, the inhibition is 41.6%.

For the molecule `Cc1cc(C)nc(NC2=NCC(=O)N2c2ccc3c(c2)OCCO3)n1`, the inhibition is -18.4%.

On to `COC(=O)[C@@]1(Cc2ccc(OC)cc2)[C@H]2c3cc(C(=O)N4CCCC4)n(Cc4ccc(C)o4)c3C[C@H]2CN1C(=O)c1ccccc1`, for which the inhibition worked out at 18%.

Consider `CC(C)N(Cc1ccccc1)C(=S)NC1CCCCC1`, for which the inhibition was found to be 30.5%.

On to `CNC(=S)N1CCN(C(c2ccccc2)c2ccccc2)CC1`, for which the inhibition amounted to 32.3%.

Turning to `Cc1ccc2nc(N/N=C/c3ccccc3F)nc(-c3ccccc3)c2c1`, the inhibition was -0.94%.

For the molecule `CCN1/C(=C\c2ccc3cc(C)ccc3[n+]2CC)Sc2cc(C)c(C)cc21`, the inhibition stood at 84%.

For `Cc1ccc(S(=O)(=O)n2c3ccc(F)cc3c3nc(C)sc32)cc1`, the inhibition stood at 36.1%.

With `COc1cccc(NC(=S)N/N=C2/CCCCc3ccccc32)c1`, the inhibition came to 51%.

On to `Cc1ccc(-c2csc(N(CC3CCCO3)C(=O)c3ccco3)n2)cc1` (stereo unspecified), for which the inhibition was determined as 7.1%.

For the molecule `CC(C)(C)C1C/C(=C/c2ccccn2)C(=O)/C(=C/c2ccccn2)C1` (stereo unspecified), the inhibition is 32.3%.

As for `S=C1NC(c2cccs2)=CC(c2ccc(Br)cc2)N1` (stereo unspecified), the inhibition came out at 41.6%.

Consider `Cc1ccc2nc(Cl)c(/C=N/NC(=O)c3ccccc3O)cc2c1`, for which the inhibition stood at 27.6%.

Turning to `Cc1ccc(N=N/C(=C\O)C(=O)c2ccc(Cl)cc2)cc1`, the inhibition was 96.8%.

For the molecule `CCc1ccc(NC(=S)N2CCCCCCC2)cc1`, the inhibition was determined as 49.1%.

Turning to `Cc1ccc(NC(=S)N(CCCN2CCCC2)Cc2cccn2Cc2ccc(Cl)cc2)cc1Cl`, the inhibition stood at 74.4%.

With `Cc1ccc(-c2nc3cc(Br)cnc3nc2-c2ccc(C)cc2)cc1`, the inhibition was 22.2%.

Turning to `O=C(c1ccc(Cl)c(Cl)c1)c1cnc(Nc2ccccc2)s1`, the inhibition was -1.32%.
